Source: the supplement of paper PMC12217912
The list shows a part of the results. The full chains were built here from the parent and the listed change. Values near 0.05 are background.

B1: TEV protease; numbered along this chain (parent)
chain: MGESLFKGPRDYNPISSSICHLTNESDGHTTSLYGIGFGPFIITNKHLFRRNNGTLVVQSLHGVFKVKDTTTLQQHLVDGRDMIIIRMPKDFPPFPQKLKFREPQREERICLVTTNFQTKSMSSMVSDTSCTFPSGDGIFWKHWIQTKDGQCGSPLVSTRDGFIVGIHSASNFTNTNNYFTSVPKNFMELLTNQEAQQWVSGWRLNADSVLWGGHKVFMVKPEEPFQPVKEATQL

Variants of: B1
Assay: raw area under fraction-flipped curve 0-4 h after induction (AUC4h, not background-subtracted), DNA-recorder readout of cleavage of the substrate (dimensionless); higher = more cleavage of the substrate by the protease variant
Conditions: temperature: 34 °C; time window: 0-4 h after rhamnose induction
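Note: Bxb1 expression induced with 0.2% (w/v) L-rhamnose at OD600 near 0.5, cultures sampled hourly, flipped fraction per protease–substrate barcode pair counted by paired-end Illumina sequencing.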

| Variant | area with substrate ENEYFQS | area with substrate ENRYFQS | area with substrate ENYYFQS | area with substrate ENDYFQS | area with substrate ENGYFQS | area with substrate ENMYFQS | area with substrate ENNYFQS | area with substrate ENTYFQS | area with substrate ENVYFQS | area with substrate ENSYFQS |
| --- | --- | --- | --- | --- | --- | --- | --- | --- | --- | --- |
| MGESLFKGPRDYNPISSSICHLTNESDGHTTSLYGIGFGPFIITNKHLFRRNNGTLVVQSLHGVFKVKDTTTLQQHLVDGRDMIIIRMPKDFPPFPQKLKDREPQREERICLVTTNFQTKSMSSMVSDTSCTFPSGDGIFWKHWIQTKDGQCGSPLVSTRDGFIVGIHSASNFTNTNNYFTSVPKNFMELLTNQEAQQWVSGWRLNADSVLWGGHKVFMVKPEEPFQPVKEATQL [F101D] | 0.0341 | 0.035 | – | – | – | – | – | – | – | – |
| MGESLFKGPRDYNPISSSICHLTNESDGHTTSLYGIGFGPFIITNKHLFRRNNGTLVVQSLHGVFKVKDTTTLQQHLVDGRDMIIIRMPKDFPPFPQKLKFREPQREERICLVTTNFQTKSMSSMVSDTSCTFPSGDGIFWKHWIQTKDGQCGSPLVSTRDGFIVGIHSASKFTNTNNYFTSVPKNFMELLTNQEAQQWVSGWRLNADSVLWGGHKVFMVKPEEPFQPVKEATQL [N172K] | 0.0672 | – | 0.0584 | – | – | – | – | – | – | – |
| MGESLFKGPRDYNPISSSICHLTNESDGHTTSLYGIGFGPFIITNKHLFRRNNGTLVVQSLHGVFKVKDTTTLQQHLVDGRDMIIIRMPKDFPPFPQKLKFREPQREERICLVTTNFQTKSMSSMVSDTSCTFPSGDGIFWKHWIQTKDGQCGSPLVSTRDGFIVGIHSASNFTNTNNYFTSVPKNTMELLTNQEAQQWVSGWRLNADSVLWGGHKVFMVKPEEPFQPVKEATQL [F187T] | – | – | 0.0582 | 0.0537 | 0.0721 | 0.0608 | 0.0503 | 0.0611 | 0.0342 | – |
| MGESLFKGPRDYNPISSSICHLTNESDGHTTSLYGIGFGPFIITNKHLFRRNNGTLVVQSLHGVFKVKDTTTLQQHLVDGRDMIIIRMPKDFPPFPQKLKFREPQREERICLVTTNFQTKSMSSMVSDTSCTFPSGDGIFWKHWIQTKDGQCGSPLVSTRDGFIVGIHSASNFTNTNNYFTSVPKNFMELLTNQEAQQWVSGWRLNADSVLWGGHKVFMVKPEEPFQPVKLATQL [E231L] | 0.0611 | – | – | – | 0.043 | – | – | 0.0585 | – | 0.0527 |
| MGESLFKGPRDYNPISSSICHLTNESDGHTTSLYGIGFGPFIITNKHLFRRNNGTLVVQSLHGVFKQKDTTTLQQHLVDGRDMIIIRMPKDFPPFPQKLKFREPQREERICLVTTNFQTKSMSSMVSDTSCTFPSGDGIFWKHWIQTKDGQCGSPLVSTRDGFIVGIHSASNFTNTNNYFTSVPKNFMELLTNQEAQQWVSGWRLNADSVLWGGHKVFMVKPEEPFQPVKEATQL [V67Q] | 0.0524 | – | – | – | – | – | 0.0455 | – | – | 0.0693 |
| MGESLFKGPRDYNPISSSICHLTNESDGHTTSLYGIGFGPFIITNKHLFRRNNGTLVVQSLHGVFKVKDTTTLQQHLVDGRDMIIIRMPKDFPPFPQKLKFREPQREERICLVTTNFQTKSMSSMVSDTSCTFPSGDGIFWKHWIQTKDGQCGSPLVSTRDGFIVGIHSASNFTNTNNYFTSVPKNFMELLTNQEAQQWVSGWRLNADSVLWGGHKVFMVKPEESFQPVKEATQL [P225S] | 0.0794 | 0.0424 | – | 0.0641 | – | – | 0.0758 | – | – | 0.0628 |
| MGESLFKGHRDYNPISSSICHLTNESDGHTTSLYGIGFGPFIITNKHLFRRNNGTLVVQSLHGVFKVKDTTTLQQHLVDGRDMIIIRMPKDFPPFPQKLKFREPQREERICLVTTNFQTKSMSSMVSDTSCTFPSGDGIFWKHWIQTKDGQCGSPLVSTRDGFIVGIHSASNFTNTNNYFTSVPKNFMELLTNQEAQQWVSGWRLNADSVLWGGHKVFMVKPEEPFQPVKEATQL [P9H] | – | – | – | – | 0.0558 | 0.0962 | 0.0946 | – | – | 0.0647 |
| MGESLFKGPRDYNPISSSICHLTNESDGHTTSLYGIGFGPFIITNKHLFRRNNGTLVVQSLHGVFKVKDTTTLQQHLVDGRDMIIIRMPKDFPPFPQKLKFREPQREERICLVTTNFQTKSMSSMVSDTSCTFPSGDGIFWKHWIQTKDGQCGSPLVSTRDGFIVGIHSASNFTNTNNYFTSVPKNFIELLTNQEAQQWVSGWRLNADSVLWGGHKVFMVKPEEPFQPVKEATQL [M188I] | 0.0666 | 0.0618 | – | 0.0852 | – | – | – | 0.0426 | – | 0.0612 |
| MGESLFKGPRDYNPISSSICHLTNESDGHTTSLYGIGFGPFIITNKHLFRRNNGTLVVQSLHGVFKVKDTTTLQQHLVDGRDMIIIRMPKDFPPFPQKLKFREPQREERICLVTTNFQTKSMSSMVSDTSCTFPSGDGIFWKHWIQTKDGQCGSPLVSTRDGFIVGIHSASNFTNTNNYFTSVPKNFMELLTNQEAQQWVSGWRLNADSVLWGGHKVFMVKPEEPFQPVKEATQG [L235G] | – | – | – | 0.0598 | – | – | – | 0.0772 | – | 0.0553 |
| MGESLFKGPRDYNPISSSICHLTNESDGHTTSLYGIGFGPFIITNKHLFRRNEGTLVVQSLHGVFKVKDTTTLQQHLVDGRDMIIIRMPKDFPPFPQKLKFREPQREERICLVTTNFQTKSMSSMVSDTSCTFPSGDGIFWKHWIQTKDGQCGSPLVSTRDGFIVGIHSASNFTNTNNYFTSVPKNFMELLTNQEAQQWVSGWRLNADSVLWGGHKVFMVKPEEPFQPVKEATQL [N53E] | 0.0662 | – | 0.0319 | – | 0.0594 | – | – | 0.0601 | 0.0748 | 0.0608 |
| MGESLFKGPRDYNPISSSICHLTNESDGHTTSLYGIGFGPFIITNKHLFRRNNGTLVVQSLHGVFKVKDTTTLQQHLVDGRDMIIIRMPKDFPPFPQKLMFREPQREERICLVTTNFQTKSMSSMVSDTSCTFPSGDGIFWKHWIQTKDGQCGSPLVSTRDGFIVGIHSASNFTNTNNYFTSVPKNFMELLTNQEAQQWVSGWRLNADSVLWGGHKVFMVKPEEPFQPVKEATQL [K100M] | 0.084 | – | – | – | – | – | – | – | 0.0767 | 0.0464 |

Same assay, conditions: temperature: 34 °C; time window: 0-4 h after rhamnose induction

| Variant | area with substrate ENWYFQS | area with substrate ENFYFQS | area with substrate ENHYFQS | area with substrate ENIYFQS | area with substrate ENPYFQS | area with substrate ENQYFQS |
| --- | --- | --- | --- | --- | --- | --- |
| MGESLFKGPRDYNPISSSICHLTNESDGHTTSLYGIGFGPFIITNKHLFRRNNGTLVVQSLHGVFKVKDTTTLQQHLVDGRDMIIIRMPKDFPPFPQKLKFREPQREERICLVTTNFQTKSMSSMVSDTSCTFPSGDGIFWKHWIQTKDGQCGSPLVSTRDGFIVGIHSASNFTNTNNYFTSVPKNFMELLTNQEAQQWVSGWRLNADSVLWGGHKVFMVKPEEPFQPVKLATQL [E231L] | 0.0107 | – | – | – | – | – |
| MGESLFKGPRDYNPISSSICHLTNESDGHTTSLYGIGFGPFIITNKHLFRRNNGTLVVQSLHGVFKQKDTTTLQQHLVDGRDMIIIRMPKDFPPFPQKLKFREPQREERICLVTTNFQTKSMSSMVSDTSCTFPSGDGIFWKHWIQTKDGQCGSPLVSTRDGFIVGIHSASNFTNTNNYFTSVPKNFMELLTNQEAQQWVSGWRLNADSVLWGGHKVFMVKPEEPFQPVKEATQL [V67Q] | – | 0.0633 | 0.0726 | 0.103 | 0.0721 | 0.0529 |
| MGESLFKGPRDYNPISSSICHLTNESDGHTTSLYGIGFGPFIITNKHLFRRNNGTLVVQSLHGVFKVKDTTTLQQHLVDGRDMIIIRMPKDFPPFPQKLKFREPQREERICLVTTNFQTKSMSSMVSDTSCTFPSGDGIFWKHWIQTKDGQCGSPLVSTRDGFIVGIHSASNFTNTNNYFTSVPKNFMELLTNQEAQQWVSGWRLNADSVLWGGHKVFMVKPEESFQPVKEATQL [P225S] | 0.0474 | – | 0.054 | – | 0.0487 | – |
| MGESLFKGHRDYNPISSSICHLTNESDGHTTSLYGIGFGPFIITNKHLFRRNNGTLVVQSLHGVFKVKDTTTLQQHLVDGRDMIIIRMPKDFPPFPQKLKFREPQREERICLVTTNFQTKSMSSMVSDTSCTFPSGDGIFWKHWIQTKDGQCGSPLVSTRDGFIVGIHSASNFTNTNNYFTSVPKNFMELLTNQEAQQWVSGWRLNADSVLWGGHKVFMVKPEEPFQPVKEATQL [P9H] | – | 0.0523 | 0.0583 | – | – | – |
| MGESLFKGPRDYNPISSSICHLTNESDGHTTSLYGIGFGPFIITNKHLFRRNNGTLVVQSLHGVFKVKDTTTLQQHLVDGRDMIIIRMPKDFPPFPQKLKFREPQREERICLVTTNFQTKSMSSMVSDTSCTFPSGDGIFWKHWIQTKDGQCGSPLVSTRDGFIVGIHSASNFTNTNNYFTSVPKNFIELLTNQEAQQWVSGWRLNADSVLWGGHKVFMVKPEEPFQPVKEATQL [M188I] | 0.0596 | 0.0347 | 0.0378 | 0.146 | – | 0.0549 |
| MGESLFKGPRDYNPISSSICHLTNESDGHTTSLYGIGFGPFIITNKHLFRRNNGTLVVQSLHGVFKVKDTTTLQQHLVDGRDMIIIRMPKDFPPFPQKLKFREPQREERICLVTTNFQTKSMSSMVSDTSCTFPSGDGIFWKHWIQTKDGQCGSPLVSTRDGFIVGIHSASNFTNTNNYFTSVPKNFMELLTNQEAQQWVSGWRLNADSVLWGGHKVFMVKPEEPFQPVKEATQG [L235G] | – | – | 0.0789 | – | – | 0.0606 |
| MGESLFKGPRDYNPISSSICHLTNESDGHTTSLYGIGFGPFIITNKHLFRRNEGTLVVQSLHGVFKVKDTTTLQQHLVDGRDMIIIRMPKDFPPFPQKLKFREPQREERICLVTTNFQTKSMSSMVSDTSCTFPSGDGIFWKHWIQTKDGQCGSPLVSTRDGFIVGIHSASNFTNTNNYFTSVPKNFMELLTNQEAQQWVSGWRLNADSVLWGGHKVFMVKPEEPFQPVKEATQL [N53E] | – | 0.0585 | – | – | – | 0.058 |
| MGESLFKGPRDYNPISSSICHLTNESDGHTTSLYGIGFGPFIITNKHLFRRNNGTLVVQSLHGVFKVKDTTTLQQHLVDGRDMIIIRMPKDFPPFPQKLMFREPQREERICLVTTNFQTKSMSSMVSDTSCTFPSGDGIFWKHWIQTKDGQCGSPLVSTRDGFIVGIHSASNFTNTNNYFTSVPKNFMELLTNQEAQQWVSGWRLNADSVLWGGHKVFMVKPEEPFQPVKEATQL [K100M] | – | 0.065 | 0.0767 | – | – | – |
